PubChem BioAssay AID588591 (National Center for Advancing Translational Sciences (NCATS), 2011)
Among all 390,000 compounds or so, about 4,700 (1.2%) were called active. The inconclusive results got no clear call from the source; some entries with a clear call stand among them for comparison. Calls come from the whole dose curve; as a rule, active = well fitted inhibition curve with a large enough effect; inconclusive = small, poorly fitted or top-dose-only effect, or another doubt; inactive = no such curve, though single readings can be large or run the other way. Potencies of inconclusive entries are doubtful fits and often do not repeat.

Each compound was assayed against DNA polymerase eta (Homo sapiens) (UniProt Q9Y253) (assay: qHTS for Inhibitors of Polymerase Eta). Conditions: recombinant Pol eta, fluorescent DNA replication assay; series mostly up to 114 µM; activity change, negative = inhibition: at the top concentration.
Summary of the method: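 Pol eta at 10 nM preincubated with compounds 15 min at room temperature; reaction started with fluorescent substrate (50 nM final) and read kinetically at 0 and 10 min.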
% is set by controls: 0 for no effect and ±100 for the full control effect; potency is the fitted concentration of half-maximal effect; tags give direction and shape of the fitted curve.

Chain of UniProt Q9Y253 (Q9Y253 whole entry, looked up): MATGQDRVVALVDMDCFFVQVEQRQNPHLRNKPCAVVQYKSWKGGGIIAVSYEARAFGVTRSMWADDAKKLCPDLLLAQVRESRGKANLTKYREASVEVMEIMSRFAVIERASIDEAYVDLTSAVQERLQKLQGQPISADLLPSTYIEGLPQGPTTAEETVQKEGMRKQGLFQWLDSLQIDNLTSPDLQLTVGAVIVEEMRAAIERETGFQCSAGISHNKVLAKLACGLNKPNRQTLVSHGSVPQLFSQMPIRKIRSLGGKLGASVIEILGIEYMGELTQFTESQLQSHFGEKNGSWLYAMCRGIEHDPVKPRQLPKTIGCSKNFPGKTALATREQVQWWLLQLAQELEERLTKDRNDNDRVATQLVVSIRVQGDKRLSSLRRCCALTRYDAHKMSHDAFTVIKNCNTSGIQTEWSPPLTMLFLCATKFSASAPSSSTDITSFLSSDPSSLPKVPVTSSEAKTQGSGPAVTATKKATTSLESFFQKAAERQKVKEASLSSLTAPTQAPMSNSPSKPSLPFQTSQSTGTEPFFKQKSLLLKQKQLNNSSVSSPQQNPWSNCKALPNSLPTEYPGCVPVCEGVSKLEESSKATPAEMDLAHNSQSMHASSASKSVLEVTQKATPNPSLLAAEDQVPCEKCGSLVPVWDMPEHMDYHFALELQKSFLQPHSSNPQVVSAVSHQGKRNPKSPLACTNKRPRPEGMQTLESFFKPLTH

Row | Structure (SMILES) | activity change, negative = inhibition | Potency
1 | CCCC12CN3CC(C)(CN(C1)C3c1ccccn1)C2=O (stereo not given) | inactive: -4.38% | 
2 | Cc1cc(/C=C2\C(=O)NC(=O)N(c3cccc(F)c3)C2=O)c(C)n1-c1ccc(C(=O)O)c(Cl)c1 |  | active: 14.1 µM
3 | C/C1=C\[C@@H](C)C/C=C/[C@H]2[C@@H]3O[C@]3(C)[C@@H](C)[C@H]3[C@H](Cc4c[nH]c5ccccc45)NC(=O)[C@]32C(=O)/C=C/C(=O)[C@@H]1O |  | inconclusive: 15.8 µM [inhibitor, full curve, poor fit]
4 | CN(N=O)c1ccc(O)c(O)c1 |  | active: 0.891 µM
5 | CC(C)c1ccc(N2C(=O)NC(=O)/C(=C\C=C\c3ccco3)C2=O)cc1 |  | active: 20 µM
6 | COc1cc2c(cc1O)[C@@H]1Cc3ccc(OC)c(O)c3CN1CC2 |  | inconclusive: 89.1 µM [inhibitor, single point]
7 | N#CC(=Cc1ccc(O)c(O)c1)C(N)=S |  | active: 3.16 µM
8 | COc1cccc2c1C(=O)c1c(O)c3c(c(O)c1C2=O)CC(O)(C(C)=NO)CC3OC1CC(N)C(O)C(C)O1 (stereo not given) |  | active: 17.8 µM
9 | CN1C(=O)C(=Cc2ccc(N3CCCCCC3)o2)C(=O)N(C)C1=S |  | inconclusive: 31.6 µM [inhibitor, single point]
10 | Cc1oc(-c2ccccc2Cl)nc1CN1C(=O)CN=C(c2ccccc2)c2cc(Cl)ccc21 |  | inconclusive: 1 µM [inhibitor, partial curve, poor fit]
11 | CC[C@H](C)/C=C(C)/C=C/C1=CC2=C(Cl)C(=O)[C@@](C)(OC(C)=O)C(=O)C2=CO1 |  | active: 20 µM
12 | Cc1ccc(-n2c(O)c(/C=C/C=Nc3ccccc3)c(=O)[nH]c2=O)cc1 |  | inconclusive: 39.8 µM [inhibitor, partial curve, poor fit]
13 | CCc1ccccc1N1C(=O)/C(=C/c2ccc(N3CCN(C)CC3)o2)C(=O)NC1=S |  | active: 8.91 µM
14 | CC1N(C)c2cc(NC(=O)c3ccco3)c(P(=O)(Nc3ccc([N+](=O)[O-])cc3)N3CCOCC3)cc2C1(C)C (stereo not given) |  | inconclusive: 79.4 µM [inhibitor, partial curve]
15 | CCCOC(=O)c1c(N)n(Cc2cccs2)c2nc3ccccc3nc12 |  | inconclusive: 20 µM [inhibitor, partial curve, poor fit]
16 | CCOc1ccc(/C=C2/C(=O)NC(=O)N(CCc3ccc(F)cc3)C2=O)cc1 | inactive: -6.43% | 
17 | COc1ccc(N2C(=O)/C(=C/c3ccc(C)o3)C(=O)NC2=S)c(OC)c1 |  | active: 10 µM
18 | CCOC(=O)c1cccc([P+](=O)O)c1 |  | inconclusive: 3.55 µM [inhibitor, partial curve, poor fit]
19 | O=C1C(Cl)=CC(=Nc2ccc(O)cc2)C=C1Cl |  | inconclusive: 56.2 µM [inhibitor, partial curve, poor fit]
20 | NS(=O)(=O)OC(CCc1ccccc1)C(Cl)(Cl)Cl (stereo not given) |  | inconclusive: 79.4 µM [inhibitor, partial curve, poor fit]
21 | C=C1C(=O)O[C@@H]2C[C@@H](C)[C@@H]3C4OC4C(=O)[C@@]3(C)[C@@H](O)[C@H]12 (stereo not given in full) |  | inconclusive: 50.1 µM [inhibitor, partial curve]
22 | c1ccc2sc(N3CCNCC3)nc2c1 | inactive: -1.82% | 
23 | COc1ccc(N2C(=O)/C(=C/c3cccs3)C(=O)NC2=S)cc1 | inactive: 3.87% | 

Row | Structure (SMILES) | activity change, negative = inhibition | Potency
24 | CCC(=NCC1CCCO1)c1c(O)n(Cc2ccccc2)c(=O)[nH]c1=O (stereo not given) | inactive: -4.93% | 
25 | C/C=C(/C)C(=O)O[C@H]1C(C)=C2C([C@@H]1OC(=O)CCCCCCC)[C@@](C)(OC(C)=O)C[C@@H](OC(=O)CCC)[C@@]1(O)[C@H]2OC(=O)[C@@]1(C)O (stereo not given in full) |  | inconclusive: 17.8 µM [inhibitor, partial curve]
26 | O=C1NC(=O)N(c2ccccc2)C(=O)/C1=C\C=C\c1ccccc1 |  | inconclusive: 89.1 µM [inhibitor, partial curve, poor fit]
27 | CC(=O)OC1N=C(c2ccccc2)c2cc(C)ccc2NC1=O (stereo not given) |  | inconclusive: 79.4 µM [inhibitor, partial curve, poor fit]
28 | O=C(O)CCn1cc(C=C2C(=O)NC(=O)NC2=O)c(-c2ccc(Br)cc2)n1 | inactive: 11.3% | 
29 | CN(C)c1ccc(/C=C/c2cc[n+](C)c3ccccc23)cc1 |  | inconclusive: 15.8 µM [inhibitor, partial curve, poor fit]
30 | CCOC(=O)c1ccc(N=Cc2c(O)n(-c3ccccc3F)c(=S)[nH]c2=O)cc1 | inactive: -28.1% | 
31 | COc1ccc(/C=C2/C(=O)NC(=S)N(C3CC3)C2=O)cc1CN1C(=O)c2ccccc2C1=O |  | inconclusive: 22.4 µM [inhibitor, full curve, poor fit]
32 | Cc1ccc(NC(=O)N(Cc2ccc3c(c2)OCO3)C2CCN(Cc3ccccc3)CC2)cc1Cl | inactive: -10.8% | 
33 | Cc1ccccc1-n1c(O)c(/C=C/C=Nc2ccccc2)c(=O)[nH]c1=O |  | inconclusive: 44.7 µM [inhibitor, full curve, poor fit]
34 | CN1C(=O)C(=Cc2ccc(Sc3ccccc3)o2)C(=O)N(C)C1=S |  | active: 44.7 µM
35 | CCOC(=O)c1ccc(NC(=O)c2c(O)[nH]c(=O)[nH]c2=O)cc1 |  | inconclusive: 39.8 µM [inhibitor, single point]
36 | CC(Oc1ccc(Br)cc1)C(=O)N(Cc1nc(-c2ccccc2)no1)C(C)C (stereo not given) |  | inconclusive: 79.4 µM [inhibitor, partial curve, poor fit]
37 | CC1=CC(=C2C(=O)NC(=S)NC2=O)C=C(C(F)(F)F)N1C |  | inconclusive: 28.2 µM [inhibitor, single point]
38 | COc1ccc(OC)c(N2C(=O)NC(=O)/C(=C/c3ccc([N+](=O)[O-])s3)C2=O)c1 |  | active: 20 µM
39 | Nc1ccc2ccc3cccc[n+]3c2c1 |  | inconclusive: 20 µM [inhibitor, partial curve, poor fit]
40 | NC(=O)c1ccc(N=Cc2c(O)n(Cc3ccco3)c(=O)[nH]c2=O)cc1 |  | active: 22.4 µM
41 | O=C1NC2C(=CC(O)C(O)C2O)c2cc3c(cc21)OCO3 (stereo not given) |  | inconclusive: 31.6 µM [inhibitor, partial curve, poor fit]
42 | Cc1ccc(N2C(=O)/C(=C/N3CCN(C(=O)c4ccco4)CC3)C(=O)NC2=S)cc1C | inactive: -7.61% | 
43 | Cc1ccc(S(=O)(=O)N(CC(=O)N/N=C\c2cccs2)c2cccc3cccnc23)cc1 |  | inconclusive: 31.6 µM [inhibitor, partial curve, poor fit]
44 | Cc1nn(CCC#N)c2c1P(=S)(N1CCCC1)OC(c1ccc(F)cc1)=N2 (stereo not given) | inactive: -2.5% | 
45 | O=C(O)CSCC(=O)N(Cc1ccccc1)c1nc(-c2ccccc2)c(-c2ccccc2)s1 |  | inconclusive: 56.2 µM [inhibitor, partial curve, poor fit]
